Data on 23 compounds can be found in PubChem BioAssay AID1346428 (National Center for Advancing Translational Sciences (NCATS), 2018).

Screen size: about 48,000 compounds; about 1,200 (2.5%) were called active. Inconclusive results (about 2%) are left out.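 How the source made its calls: active means activation of at least 60% and not above a set upper limit (about 1 call in 100 departs from these limits); inconclusive means activation of 40% to 60%, or above that upper limit; inactive means activation under 40%.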 This is one part of the list.

UniProt O75388, sequence (O75388 whole entry, looked up): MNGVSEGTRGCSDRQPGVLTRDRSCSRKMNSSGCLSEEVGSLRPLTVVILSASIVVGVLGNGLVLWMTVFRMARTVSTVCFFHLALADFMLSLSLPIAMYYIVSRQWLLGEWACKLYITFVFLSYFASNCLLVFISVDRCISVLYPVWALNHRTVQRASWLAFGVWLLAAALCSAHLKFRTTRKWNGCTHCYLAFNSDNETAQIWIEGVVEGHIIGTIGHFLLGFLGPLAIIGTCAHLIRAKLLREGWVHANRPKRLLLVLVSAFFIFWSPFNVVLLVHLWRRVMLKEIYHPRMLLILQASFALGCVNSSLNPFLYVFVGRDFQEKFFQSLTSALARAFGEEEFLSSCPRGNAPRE

The test addresses Probable G-protein coupled receptor 32 (Homo sapiens) (UniProt O75388). Nature of the test: qHTS for Agonists of Human Resolvin D1 Receptor DRV1. Further: 0% is about no effect. Particulars: CHO-K1 GPR32 beta-arrestin PathHunter luminescence, 90 min; at 76.9 µM; hits give high values; zero percent set by DMSO-only wells. In outline:
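Engineered CHO-K1 line co-expressing GPR32-ProLink and EA-beta-arrestin. Compound treatment lasted 90 min at 37 °C. Luminescence was recorded after 1 h with substrate at ambient temperature, relative to DMSO basal wells.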
In the case of `Cc1ccc(C)c(CNC(=O)c2cc3ccccn3n2)c1`, the activation is inactive: -1.46%.
The same measure for `COc1ccc(N2CC(NC(=O)COc3ccc4ccccc4c3)CC2=O)cc1OC` (stereo not drawn): inactive: 37.4%; for `CCN1C(=O)C(Cc2nc3ccccc3c(=O)n2-c2ccc(OC)cc2)c2ccccc21` (stereo not drawn): inactive: -13.9%.
For `CC1Cc2cc(S(=O)(=O)NCc3ccc(N(C)C)cc3)ccc2N1C(=O)C1CCC1` (stereo not drawn), the activation is inactive: 10.8%.
With `CCOC(=O)N1CCc2c(sc3c2C(=O)NC(c2ccccc2F)N3)C1` (stereo not drawn), the activation is inactive: -23.2%.
As to `Cc1ccc(-n2c(=O)c3c4c(sc3n(CC(=O)Nc3ccccc3C)c2=O)CCCCC4)cc1C`, the activation is inactive: 28.7%.
In the case of `COc1ccccc1CNc1nccn(-c2ccccc2)c1=O`, the activation was inactive: 16.8%.
Consider `CCCCC1CCC(C(=O)N2CC(=O)Nc3ccc(Cl)cc3C2c2ccc(F)cc2)CC1` (stereo not drawn), for which the activation was inactive: -18.6%.
Under `CCN(CC)c1ccc(-c2nc(-c3ccco3)no2)cc1[N+](=O)[O-]` stands inactive: -10.4%; under `CCC(C)NC(=O)c1sc2nc(C)c(C(=O)Nc3ccc(C)cc3C)c(-c3ccccc3Cl)c2c1N` (stereo not drawn), inactive: -12.1%.
As for `COc1ccc(NC(=O)c2cnc(N3CCCCC3)c3ccccc23)cc1Cl`, the activation was inactive: -15.2%.
Consider `Cc1ccc(CCNC(=O)c2ccc3c(=O)n(-c4ccccc4)c(=O)[nH]c3c2)cc1`, for which the activation was inactive: -2.55%.
As to `Cn1cc(S(=O)(=O)N2CCCCC2)cc1C(=O)Nc1cccc(C#N)c1`, the activation was inactive: 1.35%.
Under `CCOC(=O)c1cccc2c1N[C@@H](c1ccc(F)cc1)[C@H]1CC=C[C@@H]21` stands inactive: -32.4%.
For the compound `Cc1ccc(CNC(=O)Cn2c(=O)n(Cc3ccc(F)cc3)c(=O)c3sc4ccccc4c32)cc1`, the activation is inactive: -1.64%.
Take `O=C(CCCCC(=O)Nc1c(I)cc(I)c(C(=O)O)c1I)Nc1c(I)cc(I)c(C(=O)O)c1I`: the activation was inactive: -2.49%.
Regarding `O=C(Nc1ccc(Cl)cc1)N1CCC(c2ccccc2)C1` (stereo not drawn), the activation is inactive: 2.09%.
In the case of `Cc1cc(-c2ccc(S(=O)(=O)Nc3ccc(Cl)cc3C)cc2)on1`, the activation is inactive: 5.68%.
Take `COc1cccc(N2CC(NC(=O)/C=C\c3ccc(OC)c(OC)c3)CC2=O)c1` (stereo not drawn): the activation is inactive: 3.42%.
The same measure for `CCOc1ccccc1NC(=O)c1c(NCc2sccc2C)sc2c1CCC(C)C2` (stereo not drawn): inactive: -17.6%; for `CCC(C)NC(=O)CN1C(=O)COc2ccc(S(=O)(=O)N3CCOCC3)cc21` (stereo not drawn): inactive: 0.0422%.
Take `CCCN(C(=O)Cn1ncc2c([nH]c3ccc(C)cc32)c1=O)c1ccccc1C`: the activation is inactive: 1.53%.
For `Cc1nc2scc(C)n2c(=O)c1S(=O)(=O)Nc1cccc(C(F)(F)F)c1`, the activation is inactive: 49.4%.
